# Laboratory results from PubChem BioAssay AID588855 (National Center for Advancing Translational Sciences (NCATS), 2011).
# The whole screen tested about 410,000 compounds, of which about 5,000 (1.2%) were called active. The inconclusive results got no clear call from the source; some entries with a clear call stand among them for comparison. Calls come from the whole dose curve; as a rule, active = well fitted inhibition curve with a large enough effect; inconclusive = small, poorly fitted or top-dose-only effect; inactive = no such curve, though single readings can be large or run the other way. A potency beside an inconclusive call is a rough fit, not a confirmed value. Peptide text beside a SMILES is read from it.
# Test: qHTS for Inhibitors of TGF-b; note: nearly all actives have a fitted effect of over 65% in size
# Conditions: HepG2 CAGA-GFP TGF-b/SMAD3 reporter, GFP fluorescence, 18 h, TGF-beta stimulated, 500 pg/mL final; series mostly up to 46.1 µM
# How it was run: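 Inhibition of TGF-beta-driven CAGA-GFP reporter expression in HEPG2 cells is measured by cellular GFP fluorescence after 18 h stimulation with 500 pg/mL recombinant TGF-beta in 1% FBS medium at 37 degrees C.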
# Potency is the fitted concentration of half-maximal effect; tags give direction and shape of the fitted curve.
row,SMILES,Potency
1,O=C(C(=Cc1ccccc1)CN1CCCCC1)c1ccccc1,"inconclusive: 3.16 µM [inhibitor, single point]"
2,COc1ccc(CNC(=O)c2sc(=O)n(Cc3cc(Cl)ccc3OC)c2C)cc1,inactive
3,COCc1cc(N2CCCCC2)nc(-c2ccccc2)n1,"inconclusive: 12.6 µM [inhibitor, partial curve]"
4,COC(=O)CCCC(=O)N1CCCC(C(=O)c2ccccc2SC)C1 (stereo unspecified),inactive
5,COc1ccccc1C(=O)NC(=O)Nc1c(C)cc(C)cc1C,"inconclusive: 17.8 µM [inhibitor, partial curve, poor fit]"
6,CC(C)Cn1c(N)c(C(=O)COC(=O)C2CCCCC2)c(=O)n(C)c1=O,inactive
7,CCN(CC)S(=O)(=O)N1CCC(C(=O)NCc2ccc(C)cc2)CC1,inactive
8,CC1CN(C(=O)N2c3ccccc3Sc3ccccc32)C(C)CC1=O (stereo unspecified),inactive
9,Cn1c(N/N=C/c2c[nH]c3ccccc23)nc2ccccc21,"inconclusive: 35.5 µM [inhibitor, single point]"
10,CCOc1cc(CNCC2CCCO2)cc(Br)c1OCC(N)=O (stereo unspecified),"inconclusive: 2.82 µM [inhibitor, full curve]"
11,CC1C=CCC2C(=O)N(c3cccc(C(=O)N4CCN(c5ccc(F)cc5)CC4)c3)C(=O)C12 (stereo unspecified),inactive
12,COc1ccc(S(=O)(=O)N2CCN(C(=O)CCSc3ccccc3)CC2)cc1,"inconclusive: 22.4 µM [inhibitor, single point]"
13,Cc1cc(NC(=O)c2ccc3nc(C)sc3c2)no1,"inconclusive: 35.5 µM [inhibitor, single point]"
14,CC1(C(=O)Nc2cccc3cccnc23)CCN1Cc1csc2ccccc12 (stereo unspecified),"inconclusive: 8.91 µM [inhibitor, single point]"
15,CSc1ccc(CN(C)CC(=O)Nc2ccc(NC(C)=O)cc2)cc1,inactive
16,COc1ccc2[nH]c(C(=O)O)c(CCN3C(=O)c4cccc([N+](=O)[O-])c4C3=O)c2c1,inactive
17,CC1CCc2onc(C(=O)N3CCN(c4cccc(C(F)(F)F)c4)CC3)c2C1 (stereo unspecified),"inconclusive: 28.2 µM [inhibitor, single point]"
18,CC(C)C[C@@H](CN1CCC[C@@H]1CN1C(=O)C(=O)NC[C@@H]1Cc1ccccc1)N1C[C@H](Cc2ccc(O)cc2)N(CC2CCCCC2)C(=O)C1=O,"inconclusive: 20 µM [inhibitor, partial curve, poor fit]"
19,c1ccc(-c2csc(NC3CCCCC3)n2)cc1,"inconclusive: 6.31 µM [inhibitor, single point]"
20,CC(=O)Nc1c(C(=O)NCc2ccccc2)nnn1Cc1ccccc1,inactive
21,CSc1nc2nccc(-c3ccc(Cl)cc3)n2n1,inactive
22,C#CCOCCOCCOCCNc1nc(N2CCN(C(=O)[C@H](CCCCN)n3cc(CN)nn3)CC2)nc(N2CCN(C(=O)[C@H](CCC(=O)O)n3cc([C@@H](N)CCCCN)nn3)CC2)n1,"inconclusive: 25.1 µM [inhibitor, single point]"

row,SMILES,Potency
1,Oc1cccc(C2c3[nH]c4ccccc4c3CCN2Cc2ccc3c(c2)CCO3)c1 (stereo unspecified),"inconclusive: 28.2 µM [inhibitor, single point]"
2,O=C(CSc1nc(C(F)(F)F)cc(=O)[nH]1)Nc1cccc2ccccc12,inactive
3,Cc1cc(/C=N/n2cnnc2)c(C)n1-c1ccc(OCc2ccc(Cl)cc2Cl)cc1,active: 8.91 µM
4,O=C(Cn1nnc(-c2cccc(C(F)(F)F)c2)n1)NNS(=O)(=O)c1cccc(C(F)(F)F)c1,"inconclusive: 11.2 µM [inhibitor, partial curve]"
5,Cn1c(SCC(=O)NC2CC2)nnc1-c1cccs1,inactive
6,Cc1cnc(CNC(=O)c2csc([C@H]3C[C@H](O)[C@@H](CO)O3)n2)cn1,inactive
7,O=C(CSc1nc(O)cc(=O)n1-c1ccccc1)Nc1ccc2c3c(cccc13)CC2,"inconclusive: 20 µM [inhibitor, single point]"
8,C/C(CC(=O)Nc1ccc(Cl)c(C(F)(F)F)c1)=N\NC(=O)c1ccccc1O,active: 15.8 µM
9,COc1cc(OC)cc(C(=O)N[C@H](C(=O)Nc2ccccc2N2CCOCC2)C(C)C)c1,"inconclusive: 6.31 µM [inhibitor, single point]"
10,O=C(c1ccco1)N1CCN(CCCCOc2cccc3ccccc23)CC1,"inconclusive: 11.2 µM [inhibitor, partial curve, poor fit]"
11,Cc1cc(/C=C\c2ccc3cc(N(C)C)ccc3[n+]2C)c(C)n1-c1ccccc1,"inconclusive: 1.41 µM [inhibitor, full curve]"
12,Cc1ccc(C(CC(=O)Nc2cc(C)cc(C)c2)N2Cc3ccccc3C2=O)cc1 (stereo unspecified),"inconclusive: 20 µM [inhibitor, single point]"
13,C=CCCCCc1nc2ccccc2c(=O)n1N,"inconclusive: 3.55 µM [inhibitor, single point]"
14,O=C(N/N=C/c1ccncc1)c1sc2ccccc2c1Cl,"inconclusive: 22.4 µM [inhibitor, single point]"
15,N=c1c2c(-c3ccccc3)c(-c3ccccc3)n(Cc3ccco3)c2ncn1Cc1ccco1,inactive
16,CCOc1ccc2nc(S(=O)(=O)NC(=O)C3(C)CCN3C(=O)c3cc(C)n(C)n3)sc2c1 (stereo unspecified),inactive
17,COc1ccc(-c2cc(C(F)(F)F)nc(SCC(=O)NCCc3ccc(OC)c(OC)c3)n2)cc1,inactive
18,Cc1ccc(NC(=O)N2CCC(CN3CCC(C)CC3)CC2)cc1F,inactive
19,NC(=O)c1c(NC(=O)CSc2nnc(Cc3ccccc3)n2Cc2ccco2)sc2c1CCC2,"inconclusive: 3.55 µM [inhibitor, partial curve]"
20,Cc1ccc(C(O)c2ncc(-c3cccc(C(F)(F)F)c3)[nH]2)c(C)c1 (stereo unspecified),"inconclusive: 22.4 µM [inhibitor, single point]"
21,COc1ccc(CC(N)c2csc(NC(=O)C(c3ccccc3)c3ccccc3)n2)cc1 (stereo unspecified),"inconclusive: 35.5 µM [inhibitor, single point]"
22,COc1ccc(S(=O)(=O)N2CCN(C(=O)c3cc4c(s3)CCCC4)CC2)cc1,"inconclusive: 35.5 µM [inhibitor, single point]"

row,SMILES,Potency
1,O=C1N=C(N2CCCCC2)S/C1=C\c1ccc(Br)cc1,inactive
2,CCCCc1ccc(NC(=O)COc2cccc3c(=O)n(C)ccc23)cc1,active: 8.91 µM
3,Cc1cc(C(=O)O[C@H]2[C@H](C)NS(=O)(=O)[C@H]3C[C@@H]4C=C[C@]23O4)cc([N+](=O)[O-])c1,"inconclusive: 22.4 µM [inhibitor, partial curve, poor fit]"
4,CC1CN(C(=S)NC(=O)c2ccc(Cl)cc2)CC(C)O1 (stereo unspecified),inactive
5,CCOC(=O)c1c(C)c(-c2ccccc2)n(CC(=O)NCCc2ccc(C)cc2)c1C,"inconclusive: 35.5 µM [inhibitor, single point]"
6,COc1ccc(SC[C@H](Cc2ccccc2)N2CCN(C)CCC2=O)cc1,"inconclusive: 2.51 µM [inhibitor, single point]"
7,Cc1ccc(CCNC(=O)C2CCN(S(=O)(=O)c3cccc4nsnc34)CC2)cc1,inactive
8,Cc1ccc(C(=O)NC(C(=O)Nc2ccccc2)c2ccccc2)cc1 (stereo unspecified),"inconclusive: 35.5 µM [inhibitor, partial curve, poor fit]"
9,O=C(Nc1cccc(N=Cc2cc(Br)cc(Br)c2O)c1)c1ccco1,"inconclusive: 14.1 µM [inhibitor, single point]"
10,Cc1cc(C(=O)NNC(=S)NC(=O)/C=C/c2ccccc2Cl)n[nH]1,"inconclusive: 20 µM [inhibitor, single point]"
11,O=C(NCc1nc(-c2ccc(C(F)(F)F)cc2)no1)Nc1cc(Cl)cc(Cl)c1,"inconclusive: 14.1 µM [inhibitor, partial curve, poor fit]"
12,Cc1ccc(S(=O)(=O)N(C)C)cc1NC(=S)Nc1ccc2[nH]c(=O)[nH]c2c1,inactive
13,CCOc1ccc2c(c1)sc(N)[n+]2Cc1cc(C)cc2cccnc12,"inconclusive: 14.1 µM [inhibitor, single point]"
14,CC(=O)NC(CC(C)C)C(=O)NC(Cc1ccccc1)C(N)=O (stereo not drawn) (Ac-Leu-Phe-NH2; configuration not given here),"inconclusive: 35.5 µM [inhibitor, single point]"
15,CN(C)CCn1c(=N)n(CC(O)c2ccc(Cl)c(Cl)c2)c2ccccc21 (stereo unspecified),"inconclusive: 35.5 µM [inhibitor, single point]"
16,CC(C)Cc1cc(C(=O)Nc2cc(Br)ccc2O)no1,"inconclusive: 35.5 µM [inhibitor, single point]"
17,Cc1nc(SCC(=O)Nc2c(C)n(C)n(-c3ccccc3)c2=O)c(C#N)c(C)c1C,"inconclusive: 35.5 µM [inhibitor, partial curve, poor fit]"
18,CCCn1c(SCC(=O)Nc2c(C)cccc2CC)nnc1C(C)C,inactive
19,Cc1ccc(/C=C/c2onc(C)c2S(=O)(=O)N2CCC(C(=O)N3CCOc4ccccc43)CC2)cc1,"inconclusive: 2.24 µM [inhibitor, partial curve, poor fit]"
20,COc1ccccc1Nc1ncnc2c1c(C)c(C)n2CCCN(C)C,"inconclusive: 35.5 µM [inhibitor, single point]"
21,Cc1cccc(-n2ccnc2SCC(=O)Nc2cccc(S(=O)(=O)NC3=NCCC3)c2)c1C,"inconclusive: 35.5 µM [inhibitor, single point]"
22,CC(=O)n1cc([C@H]2C=C(C(=O)Nc3ccccc3)O[C@@H](OCc3ccc(CO)cc3)C2)c2ccccc21,"inconclusive: 35.5 µM [inhibitor, single point]"
